The whole screen tested about 310,000 compounds, of which about 14,000 (4.5%) showed an effect of 50% or more. Effects have a minus sign here. The list shows a part of the results.
Each compound was assayed against human ether-à-go-go-related gene (hERG) potassium channel (human, UniProt Q12809) (assay: primary screen, population patch clamp on CHO cells stably expressing hERG).
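Note: peak tail current of the secondary pulse compared with the same well before compound.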

Sequence of human ether-à-go-go-related gene (hERG) potassium channel (Q12809 whole entry, looked up): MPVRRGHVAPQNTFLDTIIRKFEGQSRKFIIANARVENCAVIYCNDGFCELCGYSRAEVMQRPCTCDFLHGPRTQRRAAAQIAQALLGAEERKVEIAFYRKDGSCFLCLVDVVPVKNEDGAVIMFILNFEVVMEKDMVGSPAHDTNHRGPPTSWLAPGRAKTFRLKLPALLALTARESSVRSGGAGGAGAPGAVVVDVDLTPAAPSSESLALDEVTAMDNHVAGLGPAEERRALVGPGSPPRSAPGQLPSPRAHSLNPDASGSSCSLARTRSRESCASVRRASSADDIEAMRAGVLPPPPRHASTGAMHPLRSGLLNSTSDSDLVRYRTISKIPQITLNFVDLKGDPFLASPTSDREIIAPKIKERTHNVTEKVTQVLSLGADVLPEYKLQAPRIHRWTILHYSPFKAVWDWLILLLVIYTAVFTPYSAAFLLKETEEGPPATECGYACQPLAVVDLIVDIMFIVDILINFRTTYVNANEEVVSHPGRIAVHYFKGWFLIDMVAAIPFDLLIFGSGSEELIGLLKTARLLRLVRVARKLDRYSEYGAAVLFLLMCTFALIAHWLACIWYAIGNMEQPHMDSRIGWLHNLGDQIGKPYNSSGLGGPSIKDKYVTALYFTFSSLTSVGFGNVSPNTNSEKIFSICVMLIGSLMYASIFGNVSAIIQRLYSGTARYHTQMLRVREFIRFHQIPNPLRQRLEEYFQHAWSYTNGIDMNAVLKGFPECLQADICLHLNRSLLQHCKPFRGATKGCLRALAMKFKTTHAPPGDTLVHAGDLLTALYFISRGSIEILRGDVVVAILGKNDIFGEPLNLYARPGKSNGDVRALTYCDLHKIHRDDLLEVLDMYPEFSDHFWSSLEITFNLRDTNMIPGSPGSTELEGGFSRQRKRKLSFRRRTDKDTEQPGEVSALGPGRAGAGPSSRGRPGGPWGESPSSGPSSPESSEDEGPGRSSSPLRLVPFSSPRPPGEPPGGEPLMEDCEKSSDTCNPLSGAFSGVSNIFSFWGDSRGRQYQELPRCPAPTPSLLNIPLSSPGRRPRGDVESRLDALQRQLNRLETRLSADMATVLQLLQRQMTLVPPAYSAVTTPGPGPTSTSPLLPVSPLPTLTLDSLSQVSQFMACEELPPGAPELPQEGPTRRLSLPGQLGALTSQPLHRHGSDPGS

Row | Structure (SMILES) | hERG current change (%, negative = inhibition) at 10uM [%]
1 | O=C1NC(=O)C(Cc2cccs2)C(=O)N1 | -1.48
2 | CCOC(=O)c1c(C)oc(NC(=O)CCl)c1C(=O)OCC | 6.84
3 | CC(=O)Nc1ccccc1C(=O)C(=O)Nc1cccc(C(=O)NC2CC2)c1 | -2.48
4 | CCOc1cc(N2CCOCC2)c(OCC)cc1NC(=O)COc1cccc(CC)c1 | 17.9
5 | CC(C)CN1CCN=C1N(C)C | 15.5
6 | CCCCCn1c(=O)c(C(=O)OCC)c(O)c2ccccc21 | -64
7 | COc1ccccc1N1CCN(CCCNC(=O)C2CCCN(c3ncnc4c3nc3n4CCCCC3)C2)CC1 (centres unmarked) | -40.3
8 | O=C(N/C(=C/c1cccs1)C(=O)N1CCCC1)c1ccccc1 | 6.44
9 | O=C(Nc1ccccc1-c1ccccc1)NC1CCN(C(=O)N2CCOCC2)CC1 | 6.43
10 | COc1ccc(C(=O)N2CCN(S(=O)(=O)c3ccc(C)cc3)CC2)cc1S(=O)(=O)N1CCOCC1 | -5.59
11 | CCN(CC(=O)Nc1ccc(OC)cc1)C(=O)CCc1nc2ccccc2c(=O)[nH]1 | -6.11
12 | Cc1ccc(NC(=O)CN2C(=O)C3CC=C(Cl)CC3C2=O)cc1 (centres unmarked) | -4.45
13 | O=S(=O)(Cc1ccccc1Cl)NCCc1ccc(F)cc1 | 9.08
14 | CCN(CC)CCN1C(=O)C2C(C(=O)Nc3ccc(Br)cc3)C3C=CC2(O3)C1C(=O)NC1CCCCC1 (centres unmarked) | -36.5
15 | N#Cc1ncn(-c2ccc(Oc3ccccc3)cc2)c1N | -21
16 | CN(Cc1cnccn1)Cc1nc(Cc2cccc(F)c2)no1 | 6.67
17 | CCOc1ncccc1C(=O)OCC(=O)N1CCN(S(=O)(=O)c2ccc(Cl)cc2)CC1 | -7.08
18 | CCCCc1nc(NCC2CCCO2)c(C#N)c2c1COC(C)(C)C2 (centres unmarked) | 0.983
19 | CN(C)c1cccc(C(=O)OCCCC(=O)c2ccc(F)cc2)c1 | -19.1
20 | CCOc1ccc(NC(=O)N2CCC(NC(=O)c3ccco3)CC2)cc1 | -14.4
21 | C/C=C\C=C/C(=O)Nc1cccc(C2=NOC3(C2)C[C@H](C(N)=O)N(C(=O)c2ccc(OC)cc2)C3)c1 (some centres unmarked) | 11.1
22 | CCOC(=O)c1c(NC(=S)Nc2cc([N+](=O)[O-])ccc2OC)sc2c1CCCCC2 | -4.16
23 | CC(C)S(=O)(=O)c1csc(C(=O)Nc2ccc(F)cc2)c1N | -12

Row | Structure (SMILES) | hERG current change (%, negative = inhibition) at 10uM [%]
24 | CCOCC(=O)Nc1cc(Cl)c(OC)cc1OC | 9.61
25 | O=C(NCc1cccnc1)C1CCCN(S(=O)(=O)c2cccc3nsnc23)C1 (centres unmarked) | -21.2
26 | COc1ccc(C(=O)NCN2CCN(c3ccccc3)CC2)cc1OC | 2.97
27 | Cl.Fc1ccc(COc2ccc(Br)cc2CNCc2ccncc2)cc1 | -74.7
28 | O=C(NC1CC1)C1Nc2ccc(OC(F)(F)F)cc2C2C=CCC12 (centres unmarked) | -4.94
29 | Cc1ccc(C2CCN(C(=S)NC3CCCCC3)C2)cc1 (centres unmarked) | -5.82
30 | Cc1c(NC(=O)CCC2CCCCC2)c(=O)n(-c2ccccc2)n1C | -6.47
31 | O=C(c1ccccc1F)N1CCCC(c2ccccc2)C1 (centres unmarked) | 16.7
32 | Cc1ccc(S(=O)(=O)N2CCN(C(=O)COC(=O)c3ccc([N+](=O)[O-])o3)CC2)c(C)c1 | -17.6
33 | CCC1CCC/C1=N\NC(=O)c1ccccc1Cl (centres unmarked) | 19.2
34 | Cn1c(SCC(=O)NCc2ccccc2)nnc1-c1ccc(NC(=O)CCc2ccccc2)cc1 | 0.902
35 | CCNc1nc(NC(C)C)nc(NS(=O)(=O)c2ccc(N)cc2)n1 | -6.03
36 | CN(CC1COc2ccccc2O1)C(=S)Nc1ccccc1 (centres unmarked) | -16.5
37 | CCCn1nnc(NC(=O)c2ccc(OCC)c(Cl)c2)n1 | -3.85
38 | Cc1cccc(C(=O)Oc2ccccc2C2C[C@]3(C)CC(=O)NC3N2C(=O)c2cccc(C)c2)c1 (some centres unmarked) | -10.8
39 | CCOc1cc(/C=N/NC(=O)CN2CCCCC2)ccc1OCc1ccccc1 | -59.9
40 | CCCCN=C1NN=C(c2cccc([N+](=O)[O-])c2)CS1.Cl | -4.82
41 | Fc1cccc(Cl)c1CSc1nnc(CN2CCOCC2)n1-c1ccccc1 | -8.63
42 | COc1ccccc1N(CC(=O)NCc1ccc(F)cc1)C(=O)CCC(=O)Nc1ccccn1 | 5.6
43 | CC1(OC(=O)c2cccs2)C(=O)C=C2C=C3CCCN3C=C2C1=O (centres unmarked) | 13.4
44 | Nc1nonc1-n1nnc(C(=O)N/N=C/c2cccnc2)c1-c1ccccc1 | -1.35
45 | CCOC(=O)C(CCCOc1cccc(OC)c1)C(=O)OCC | -14.9
46 | CCOC(=O)N1CCN(C(=O)CNC2CCCCCCC2)CC1.O=C(O)C(=O)O | 15.1

Row | Structure (SMILES) | hERG current change (%, negative = inhibition) at 10uM [%]
47 | Cc1cccc(C)c1NC(=O)CSc1nc(-c2ccco2)cc(C(F)(F)F)n1 | 4.77
48 | C=CCn1c(COc2ccc(Cl)cc2)nnc1SCC(=O)N/N=C/c1cccc(O)c1 | 1.35
49 | CN(C(=O)COc1ccccc1C(=O)NCCc1ccccc1)c1ccccc1 | -10.2
50 | COc1ccc(NC(=O)N(Cc2cc3ccc(OC)cc3[nH]c2=O)CC2CCCO2)cc1 (centres unmarked) | -46.6
51 | COC(=O)c1ccc(NC(=O)c2cccc(NC(=O)c3ccco3)c2)cc1 | -8.01
52 | CC(C)(C)c1ccc(/C=C/C(=O)N2CCc3ccccc3C2)cc1 | -2.16
53 | O=C(CNC(=O)c1ccccc1)OCc1ccc([N+](=O)[O-])cc1 | -33.9
54 | CCCN1C(=O)/C(=C/c2ccc(C)s2)SC1=Nc1ccc(OC)cc1 | 12.3
55 | CCCS(=O)(=O)NCCc1cc2cc(C)c(C)cc2[nH]c1=O | -7.18
56 | CNC(C)C#Cc1ccc2sc3cccc(OC)c3c(=O)c2c1 (centres unmarked) | -3.61
57 | CCOCCc1nnc(NC(=O)c2cccc(F)c2)s1 | 0.0842
58 | CC(C)(C)CC(=O)Nc1cc2c3c(c1)CCN3C(=O)CC2 | 12.6
59 | Cc1cc(C)nc(NS(=O)(=O)c2ccccc2)n1 | 3.77
60 | O=S(=O)(N/N=C1\CCCc2ccccc21)c1ccccc1 | -7.38
61 | CCCc1nnc(NC(=O)CCC(=O)N2CCN(c3ccccn3)CC2)s1 | -19.2
62 | CCCCCCOC(=O)C1=C(C)NC(=O)NC1c1ccc2c(c1)OCO2 (centres unmarked) | -13.1
63 | COc1ccc(-c2coc3cc(OC4OC(CO)C(O)C(O)C4O)cc(O)c3c2=O)cc1 (centres unmarked) | 2.58
64 | Cl.c1ccc2c(c1)oc1c(NCCCN3CCOCC3)ncnc12 | -22.4
65 | CC(C)Oc1cc(NC(=O)CSCC(=O)Nc2cccc(C(F)(F)F)c2)c(Cl)cc1Cl | 14.5
66 | Cc1c(C(=O)Nc2ccccc2C(=O)N2CCCC2)cccc1[N+](=O)[O-] | 9.76
67 | O=C(OCC(=O)N1CCCC1)c1c2c(nc3ccccc13)CCCCC2 | 11.2
68 | Cc1ccccc1OCCC(=O)NCCc1ccc(S(N)(=O)=O)cc1 | 11.1
69 | CCOC(=O)c1sc(=S)n(-c2ccccc2Cl)c1C | -13.8

Row | Structure (SMILES) | hERG current change (%, negative = inhibition) at 10uM [%]
70 | O=c1cc(CN2CCN(Cc3ccc(F)cc3)C(CCO)C2)[nH]c2ccccc12 (centres unmarked) | -61.2
71 | CCOc1c2ccccc2nn1CCOC | 5.42
72 | COc1ccc(CCNC/C=C/c2ccccc2)cc1.Cl | -51.4
73 | COC(=O)CNC(=O)C(Cc1ccccc1)NS(=O)(=O)c1ccc2c(c1)c(=O)n(C)c(=O)n2C (centres unmarked) | 11.6
74 | NC(=O)CS(=O)(=O)c1ccc(Cl)cc1 | 24.7
75 | Cc1ccc(N(CC(=O)NCc2ccco2)C(=O)CCC(=O)Nc2ccccn2)c(C)c1 | -11.9
76 | Cc1cc(O)ccc1N/C=C1\CCCC1=O | 3.69
77 | Cc1cccc(NC(=O)CNCC(=O)Nc2cccc(C)c2C)c1C.Cl | -7.02
78 | COc1ccc2[nH]cc(CCNC(=O)C3CCCNC3=O)c2c1 (centres unmarked) | -7.86
79 | c1ccc(CNc2nc(N3CCOCC3)nc(N3CCOCC3)n2)cc1 | -10
80 | CN1CCc2c(sc3nc(SCC(=O)N4CCOCC4)n(-c4ccc(Cl)cc4)c(=O)c23)C1 | 8.76
81 | COc1ccc(Cl)cc1S(=O)(=O)NCCCn1ccnc1 | 9.19
82 | O=C(C1CCCN1S(=O)(=O)c1ccc(Cl)cc1)N1CCCCC1 (centres unmarked) | 4.62
83 | CCCN(CCC)C(=O)CCSCCC(=O)N(CCC)CCC | 14.5
84 | CC(C)C(OC(=O)CN1C(=O)COc2ccccc21)C(=O)NC1CCCC1 (centres unmarked) | 10.4
85 | CCC(C)(C(=O)NC1CCCC1)N(C(=O)CNC(C)=O)c1ccc(C)cc1 (centres unmarked) | 6.26
86 | Cc1ccc(NC(=O)Cn2nnc(C(=O)NCc3cccs3)c2N)cc1Cl | 19.8
87 | CN(CC(=O)Nc1ccc(N2CCOCC2)cc1)C(=O)CSc1ccc(F)cc1 | -7.63
88 | Cc1ccc(NC(=O)CN(C)C(=O)c2ccc3[nH]c4c(c3c2)CC(C)CC4)cc1 (centres unmarked) | 8.58
89 | COc1ccccc1NC(=O)CN1CCC(n2nnc3cc(F)ccc32)CC1 | -55.4

From paper PMC4336329 (PLoS ONE, 2015)
